Laboratory results published in paper PMC10726135.
The other results are listed elsewhere or left out. At the low end of the ranking the order means little. Measured with an extract: partners may take part in the binding.

What follows are sequences tested against T1, HNF4alpha2 (COS-7 nuclear extract) (UniProt P41235) (assay: protein-binding microarray). Conditions: COS-7 nuclear extract on double-stranded Agilent 4x180k PBM; binding buffer, salt, pH and temperature not given; high values mean tight binding; double strand, one strand shown; sequences stand for … in …GCCTAGGGAGATTAGAGTATCGGTCGA.
T1 sequence: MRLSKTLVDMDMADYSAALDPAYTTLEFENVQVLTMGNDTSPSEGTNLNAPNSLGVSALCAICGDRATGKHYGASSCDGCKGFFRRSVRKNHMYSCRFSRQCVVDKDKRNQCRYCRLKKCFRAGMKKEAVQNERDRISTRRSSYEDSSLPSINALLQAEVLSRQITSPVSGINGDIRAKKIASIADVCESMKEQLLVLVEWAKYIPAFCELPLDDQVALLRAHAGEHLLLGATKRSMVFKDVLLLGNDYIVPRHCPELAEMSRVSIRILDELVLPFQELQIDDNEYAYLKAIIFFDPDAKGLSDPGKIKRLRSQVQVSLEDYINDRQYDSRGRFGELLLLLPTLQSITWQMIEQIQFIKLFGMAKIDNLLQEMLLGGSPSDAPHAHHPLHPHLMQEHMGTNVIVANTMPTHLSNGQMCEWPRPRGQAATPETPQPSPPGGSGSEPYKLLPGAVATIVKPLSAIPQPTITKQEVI
GACTTTTCCAAGCTCTAGAACGCTGACTCC gave a binding signal (log2 normalized intensity) of -1.09. For GGGTTGGAGTCCAGAGTTCAGGTAGAGGGA, the binding signal (log2 normalized intensity) was 1.85. ACACAGTACTTTGTACATGGGAATAGACAT showed a binding signal (log2 normalized intensity) of 0.863. Work on ACTTCTCCTCTTATCTTCAGGTTTGCTAAT yielded a binding signal (log2 normalized intensity) of 1.75. Work on CGAGCGTCCAAGCTCTTTCCATTTTTGCTC yielded a binding signal (log2 normalized intensity) of -0.991. Work on CAAAATAGACAAACAGCAATAGCAAGACTG yielded a binding signal (log2 normalized intensity) of -1.09. Sequence ATGGAGGTAGGAGTATTTGGGTATGTGCCT has a binding signal (log2 normalized intensity) of 1.52. Sequence TTTCAAAGCTCCAGTTCCAGGGATGTCTTT has a binding signal (log2 normalized intensity) of 0.742. In the case of GGGTCAGTTTATCTAAGATTCCCCCTACCC, the binding signal (log2 normalized intensity) is reported as 3.85. With TGGACTCTGGGATCTCAGGGTGGACTTTAA the binding signal (log2 normalized intensity) was 5.81. GTAAAATGAGCAAACAGAACTGTTAACTTT showed a binding signal (log2 normalized intensity) of -1.03. In the case of TTTTGATGGTGGAGGGTCTTGCTTTGATGT, the binding signal (log2 normalized intensity) is reported as 1.46. With GGTACCATCTGCCACTCATAGAACTGTCGC the binding signal (log2 normalized intensity) was -0.684. With AAAATGGGTACAGACAATAGGAAGAGTGAG the binding signal (log2 normalized intensity) was -0.66. AACCCAGTGCAATGCCTAAACCAGGATCCA showed a binding signal (log2 normalized intensity) of -1.16. With TTAGTTTCCTTATCTGTAAAATGGACATAG the binding signal (log2 normalized intensity) was 0.981. With CTCTTGAATTGGAAGGCAAAGTTCAACCCT the binding signal (log2 normalized intensity) was 3.2. AAGGTTTCCATCAAGCCTTTGACTCGAATG was tested, and the binding signal (log2 normalized intensity) was -0.997. AAAAGATAAGGCGTAGTTCAGAGAAAACGA was tested, and the binding signal (log2 normalized intensity) was -1.15. For AGTTTGCCACGGTCAGCAATGTGGACTTTG, the binding signal (log2 normalized intensity) was 6.18. In the case of ATCACACAGACAGACATTCAGAAACTGTCA, the binding signal (log2 normalized intensity) is reported as -1.1. ACGCACAGAGGCCCCTGATGTGATGTAATC showed a binding signal (log2 normalized intensity) of 0.474. Work on CTTATTTGCATGAAGCACAAAGGTTACTTG yielded a binding signal (log2 normalized intensity) of 2.82. Sequence CTGTACACTTACAAGTGTACAAAGGTCACT has a binding signal (log2 normalized intensity) of 7.61. With GACAAATCTGTGTTGGAGTTCTAAGAGCCT the binding signal (log2 normalized intensity) was -1.08. In the case of AGAAGTGAAAAGTCGTTTTCAGTGTTTCTT, the binding signal (log2 normalized intensity) is reported as 1.19. TCTTTGCACTTGATGTTCCCCCTCCCTGGA was tested, and the binding signal (log2 normalized intensity) was 4.59. ACTTTGGTCTTATTACTAAGTGAGAAAAGA gave a binding signal (log2 normalized intensity) of 1.19. Work on AATGGCTCCACCAGTCAGTCAGTGAGACGT yielded a binding signal (log2 normalized intensity) of -0.839. In the case of CCTTTTTGGAATGTGTTTGCATGACTCATA, the binding signal (log2 normalized intensity) is reported as 1.77. With CCCCTCCCTCCGCAACCTTTACTCCTTGTG the binding signal (log2 normalized intensity) was 3.68. Sequence ATGAAGTCAAACAAAAGAAAATGTGCCCTT has a binding signal (log2 normalized intensity) of 2.45. TGTACCCAGCACTGTCAGCAGGGGGATCCA was tested, and the binding signal (log2 normalized intensity) was -1.2. Work on ATCTTACAGGCTTATACGTGGAAGAAACTC yielded a binding signal (log2 normalized intensity) of 0.191. Work on GGATCAGAGACACGATGTTCTTGCCAAGTC yielded a binding signal (log2 normalized intensity) of -0.997. GGCATTGGAGATATGATAGCTGACAAGCAA gave a binding signal (log2 normalized intensity) of -1.15. For AAAATTCCCCAGGAGGAGATAAGATCAGTA, the binding signal (log2 normalized intensity) was -0.13. With CATCAAATCCTCGGAAGACGCACCTCTGCA the binding signal (log2 normalized intensity) was -1.11. CCCTCCCTCTTCCCTCATATAATTTACATA gave a binding signal (log2 normalized intensity) of 2.23. For GAAAGTAAGTGCACAGCCAGAACTGAGCCC, the binding signal (log2 normalized intensity) was -1.23. TTCTTGGGCAAGAAAGGGGTCAGCAAAAAT gave a binding signal (log2 normalized intensity) of 1.24. Work on GTCAGCCCTGCCATCTTGTGGCCATGCTTA yielded a binding signal (log2 normalized intensity) of -0.96. In the case of TTAGCCAGGATCAGATTTGATAGCTGGGCT, the binding signal (log2 normalized intensity) is reported as -1.17. For TTTCACTGCCTATCTCCTATGAGCCAAACA, the binding signal (log2 normalized intensity) was -1.24. In the case of CGCTCCGCGAGGTGAGCCATTGGCTGGGGT, the binding signal (log2 normalized intensity) is reported as 0.81. ATAGACATGACTTACTTGGCATCATCAAAC gave a binding signal (log2 normalized intensity) of -1. TATAGTGCTCCCTCCTGTGGTAATAAGTTG gave a binding signal (log2 normalized intensity) of 1.68. With AGCTAATCTGACCAAGTGAACTGTGACCTG the binding signal (log2 normalized intensity) was 4.22. For ATTGGCAGGCATTCCACACTGCAGGCTCTG, the binding signal (log2 normalized intensity) was -1.15. ATCAGCATGGCTGCAGAGAACAGCAGCTAT gave a binding signal (log2 normalized intensity) of -0.939. TAATTGCTTGTTGGTTCAAGAGAAATGTTA gave a binding signal (log2 normalized intensity) of 1.5. TGGAATAGATCAGCTTTCAACACTCTGGAT showed a binding signal (log2 normalized intensity) of -0.269. With ATCCTAGTCTTTGCCCCACTGCAAGTTGAC the binding signal (log2 normalized intensity) was 2.34. Sequence AAGGCAAACACTCAAGGTCCAAACAGGGTA has a binding signal (log2 normalized intensity) of -0.735. CCAAATCTAGCATCAGTGAGTCAAGAGATA showed a binding signal (log2 normalized intensity) of -0.577. GACAGCTGGGCCCTGCCTGACCTGCCCTTT gave a binding signal (log2 normalized intensity) of 4.42. Sequence AGCCTCACTTGCTGATAAGGCAGACCAGGG has a binding signal (log2 normalized intensity) of -1.06. CATCTGTCATTCCCTCACTCTAGAACCTTC showed a binding signal (log2 normalized intensity) of 1.14. CTGTGAAGACTGCAGCAAAGTCCTCCAACT was tested, and the binding signal (log2 normalized intensity) was -1.19. ATGCATGTCCCTCCTCAACCTCTCCAATGC showed a binding signal (log2 normalized intensity) of 1.93. For CTCCTGCTATCAGTACTGAAACATGCCTAT, the binding signal (log2 normalized intensity) was -1.02. CCCTCTCCCCACCATTAACCCTACAGTCCT was tested, and the binding signal (log2 normalized intensity) was 3.15. In the case of TCTCAGGTTGTGTTTGCAGTGAGTAACCTT, the binding signal (log2 normalized intensity) is reported as 2.28. ACAAAATTAAGTGATTTGCCCAATATAATA gave a binding signal (log2 normalized intensity) of -1.19. AGGCCCTCGGCATCATGCCCTTTGGCCCCC was tested, and the binding signal (log2 normalized intensity) was 7.28. With CCTGCAGGTGAAACTCCAGGCTCCAAGGGT the binding signal (log2 normalized intensity) was -1.17. For TGGAATTTGCAAGTGGAGATTTCAGCCGCT, the binding signal (log2 normalized intensity) was -1.2. CCTCCATTTCACAAATGAGGGGACAAAGTT gave a binding signal (log2 normalized intensity) of 1.02. TGTTTCAGAGTAGCCTATCAGAAGAATCTG showed a binding signal (log2 normalized intensity) of -0.645. TCACTGGTGATGTGAACCTCGATCCCTGGC was tested, and the binding signal (log2 normalized intensity) was 2.81. GATTACCTAAACAGCAACTGTAGTGCATAG gave a binding signal (log2 normalized intensity) of -1.1. CAAACAAAAGGGACAAAGGTGAGTGCAACC gave a binding signal (log2 normalized intensity) of 0.534.
